{"source": "PubChem BioAssay (Tox21)", "key": {"[1]": {"test": "qHTS assay to identify small molecule antagonists of the androgen receptor (AR) signaling pathway using the MDA cell line in the presence of 0.5 nM R1881 - cell viability counter screen (AID 1259242); further: on the % scale 0 is the no-effect control and ±100 the full control effect; nearly all actives have a fitted effect of over 45% in size", "how_it_was_run": "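Cytotoxicity toward MDA-kb2 cells is measured by CellTiter-Fluor live-cell protease fluorescence after 16 hr compound exposure at 37C in the presence of 0.5 nM R1881 stimulator.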"}, "[2]": {"test": "Caspase-3/7 induction in HepG2 cells by small molecules, qHTS cell viability counter screen (AID 1346981); further: on the % scale 0 is the no-effect control and ±100 the full control effect; nearly all actives have a fitted effect of over 30% in size", "how_it_was_run": "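Steps: seed 2,000 HepG2 cells per well; incubate 5 hr at 37 C; pin-add compounds in DMSO; incubate 16 hr; add CellTiter-Fluor; after 1 hr at 37 C and 5% CO2, read fluorescence.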"}, "[3]": {"test": "qHTS assay to identify small molecule antagonists of the androgen receptor (AR) signaling pathway - cell viability counter screen (AID 743033; further: nearly all actives have a fitted effect of over 45% in size; further: potency means the concentration at half of the fitted maximal effect; on activity change, negative = cytotoxicity: on the % scale 0 is the no-effect control and ±100 the full control effect)", "settings": "AR-bla HEK293 viability, CellTiter-Glo luminescence, 16 h; activity change, negative = cytotoxicity: at 58.5 µM (top of the series) unless noted"}, "[4]": {"target": "Voltage-gated inwardly rectifying potassium channel KCNH2 (Homo sapiens) (UniProt Q12809)", "sequence (Q12809 whole entry, looked up)": "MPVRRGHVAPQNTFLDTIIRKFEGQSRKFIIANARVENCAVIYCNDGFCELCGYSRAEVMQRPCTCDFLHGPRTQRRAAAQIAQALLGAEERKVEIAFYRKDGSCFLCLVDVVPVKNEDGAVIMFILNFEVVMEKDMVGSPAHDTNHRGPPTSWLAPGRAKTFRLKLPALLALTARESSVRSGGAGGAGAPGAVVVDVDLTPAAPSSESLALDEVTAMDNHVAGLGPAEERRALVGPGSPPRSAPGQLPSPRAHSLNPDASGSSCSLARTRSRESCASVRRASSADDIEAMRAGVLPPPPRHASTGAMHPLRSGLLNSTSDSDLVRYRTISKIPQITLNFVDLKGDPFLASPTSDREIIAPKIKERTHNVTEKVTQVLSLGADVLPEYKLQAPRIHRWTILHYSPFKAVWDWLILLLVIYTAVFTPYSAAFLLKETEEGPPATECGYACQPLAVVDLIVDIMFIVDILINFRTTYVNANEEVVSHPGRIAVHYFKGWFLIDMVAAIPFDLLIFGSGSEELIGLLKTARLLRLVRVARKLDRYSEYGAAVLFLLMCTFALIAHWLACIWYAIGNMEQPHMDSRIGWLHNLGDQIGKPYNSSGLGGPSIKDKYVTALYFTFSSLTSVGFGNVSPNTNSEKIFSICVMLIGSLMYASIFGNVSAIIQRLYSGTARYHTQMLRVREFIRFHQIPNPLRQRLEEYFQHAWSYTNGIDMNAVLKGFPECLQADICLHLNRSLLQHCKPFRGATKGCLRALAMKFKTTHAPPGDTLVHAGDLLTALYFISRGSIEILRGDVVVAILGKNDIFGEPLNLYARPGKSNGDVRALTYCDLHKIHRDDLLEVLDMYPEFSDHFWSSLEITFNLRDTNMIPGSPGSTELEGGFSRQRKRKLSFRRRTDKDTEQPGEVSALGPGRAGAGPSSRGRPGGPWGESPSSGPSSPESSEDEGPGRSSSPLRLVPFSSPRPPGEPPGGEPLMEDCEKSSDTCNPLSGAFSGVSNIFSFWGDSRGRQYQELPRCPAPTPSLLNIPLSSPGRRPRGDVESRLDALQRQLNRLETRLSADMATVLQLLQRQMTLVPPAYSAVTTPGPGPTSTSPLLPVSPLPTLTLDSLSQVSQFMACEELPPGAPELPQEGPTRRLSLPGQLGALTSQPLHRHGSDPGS", "test": "Human Ether-a-go-go-Related Gene (hERG) channel small molecule antagonists: fluorescence cell-based qHTS assay (AID 1671200); further: on the % scale 0 is the no-effect control and ±100 the full control effect; nearly all actives have a fitted effect of over 50% in size", "how_it_was_run": "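hERG-U2OS cells plated overnight at 37 C, loaded with FluxOR II dye 1 h at RT in dark; after 10 min, thallium stimulus added. Fluorescence (480/540 nm) read kinetically for 2 min at 1 s intervals.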"}, "[5]": {"test": "qHTS assay to identify small molecule antagonists of the estrogen receptor alpha (ER-alpha) signaling pathway using the BG1 cell line - cell viability counter screen (AID 743081);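 further: compound given together with 17beta-estradiol as the ER stimulus; potency means the concentration at half of the fitted maximal effect; nearly all actives have a fitted effect of over 45% in size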", "settings": "BG1Luc4E2 viability, CellTiter-Fluor, 22 h; activity change, negative = cytotoxicity: at 70.3 µM (top of the series) unless noted"}, "[6]": {"test": "A CellTox Green Cytotoxicity Assay to monitor cytotoxicity in HEK293 cells - 24 hour (AID 1224875); further: nearly all actives have a fitted effect of over 45% in size; further: potency means the concentration at half of the fitted maximal effect", "how_it_was_run": "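Cytotoxicity was tracked continuously in HEK293 cells by a DNA-binding dye excluded from viable cells. Compounds were transferred in DMSO 5 h after seeding; fluorescence was recorded at intervals up to 40 h.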"}, "[7]": {"test": "A CellTox Green Cytotoxicity Assay to monitor cytotoxicity in HepG2 cells - 0 hour (AID 1224882); further: nearly all actives have a fitted effect of over 35% in size; further: potency means the concentration at half of the fitted maximal effect; on cytotoxicity: on the % scale 0 is the no-effect control and ±100 the full control effect", "how_it_was_run": "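Real-time, homogeneous cytotoxicity readout: dead-cell DNA staining by CellTox Green in HepG2 monolayers, fluorescence measured at timed intervals up to 40 h of continuous compound exposure.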"}, "[8]": {"test": "qHTS RealTime-Glo MT Cell Viability Assay in HEK293 cells - 0 hour (AID 1224880); further: nearly all actives have a fitted effect of over 45% in size; further: potency means the concentration at half of the fitted maximal effect", "how_it_was_run": "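Nonlytic bioluminescent viability monitoring. HEK293 at 600 cells/well with reagent; 5 h settle; compound transfer by pintool; plates held at 37 C and read at set time points.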"}, "[9]": {"test": "qHTS assay to identify small molecule antagonists of the thyroid receptor (TR) signaling pathway (AID 743065); further: nearly all actives have a fitted effect of over 55% in size; further: potency means the concentration at half of the fitted maximal effect", "how_it_was_run": "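GH3.TRE-Luc rat pituitary cells carrying two TR response elements driving luciferase were plated for 4 h, given compound plus 1 nM T3 (final), and incubated 23.5 h at 37 C. ONE-Glo luminescence measured reporter inhibition; CellTiter-Fluor fluorescence tracked cytotoxicity.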"}, "[10]": {"test": "qHTS assay to identify small molecule antagonists of the estrogen receptor beta (ER-beta) signaling pathway - cell viability counter screen (AID 1259382); further: on the % scale 0 is the no-effect control and ±100 the full control effect; nearly all actives have a fitted effect of over 55% in size", "how_it_was_run": "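Following a 6 hr plating period, HEK293T cells carrying a UAS-driven beta-lactamase reporter under ER-beta control received compounds and 1nM E2 (final). After 16 hr at 37C and 2 hr substrate loading, CellTiter-Glo luminescence indicated viability.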"}, "[11]": {"test": "qHTS assay to identify small molecule antagonists of the sonic hedgehog signaling (Shh) pathway - cell viability counter screen (AID 1259367); further: on the % scale 0 is the no-effect control and ±100 the full control effect; nearly all actives have a fitted effect of over 55% in size", "how_it_was_run": "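After a 4 hr settling period, 3T3 Gli1-Luc cells were treated with DMSO-dissolved chemicals and conditioned medium, kept 24 hr at 37C in 5% CO2, and assayed for viability by CellTiter-Fluor fluorescence following 1 hr reagent incubation.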"}, "[12]": {"target": "Progesterone receptor (Homo sapiens) (UniProt P06401)", "sequence (P06401 whole entry, looked up)": "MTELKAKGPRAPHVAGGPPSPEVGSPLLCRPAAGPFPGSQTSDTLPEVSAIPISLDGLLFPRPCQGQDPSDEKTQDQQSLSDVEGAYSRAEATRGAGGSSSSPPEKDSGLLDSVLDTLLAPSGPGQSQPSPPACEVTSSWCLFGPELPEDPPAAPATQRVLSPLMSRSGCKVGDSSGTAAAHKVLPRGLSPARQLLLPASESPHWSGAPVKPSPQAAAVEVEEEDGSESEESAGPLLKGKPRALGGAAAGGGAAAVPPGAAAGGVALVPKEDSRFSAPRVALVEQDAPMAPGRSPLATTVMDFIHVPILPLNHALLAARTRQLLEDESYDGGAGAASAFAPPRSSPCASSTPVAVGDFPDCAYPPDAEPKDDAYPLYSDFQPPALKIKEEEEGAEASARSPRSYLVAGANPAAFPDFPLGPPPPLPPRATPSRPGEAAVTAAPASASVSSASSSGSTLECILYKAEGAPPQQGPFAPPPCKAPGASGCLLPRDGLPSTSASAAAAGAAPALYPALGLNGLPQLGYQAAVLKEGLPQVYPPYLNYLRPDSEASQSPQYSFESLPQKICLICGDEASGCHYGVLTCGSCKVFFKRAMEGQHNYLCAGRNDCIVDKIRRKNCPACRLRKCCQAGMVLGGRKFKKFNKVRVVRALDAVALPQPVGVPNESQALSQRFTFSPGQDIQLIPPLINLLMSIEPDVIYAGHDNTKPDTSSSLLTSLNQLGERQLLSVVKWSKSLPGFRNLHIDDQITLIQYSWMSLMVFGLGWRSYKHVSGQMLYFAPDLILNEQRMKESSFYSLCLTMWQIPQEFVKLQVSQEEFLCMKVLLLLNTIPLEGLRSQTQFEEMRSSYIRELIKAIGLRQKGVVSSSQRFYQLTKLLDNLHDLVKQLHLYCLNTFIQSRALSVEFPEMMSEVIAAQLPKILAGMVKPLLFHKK", "test": "qHTS assay to identify small molecule agonists of the progesterone receptor (PR) signaling pathway (AID 1346784; calls by dose curve; further: potency means the concentration at half of the fitted maximal effect; nearly all actives have a fitted effect of over 30% in size)", "settings": "PR-UAS-bla HEK293T, beta-lactamase FRET ratio, 16 h; activation: at 92.4 µM (top of the series) unless noted", "how_it_was_run": "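PR-UAS-bla HEK 293T cells (beta-lactamase reporter under UAS) in 2% charcoal-stripped FBS, dosed with 23 nL compound after 6 hr, incubated 16hr at 37C. LiveBLAzer B/G FRET substrate added, fluorescence read after 2 hours.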"}, "[13]": {"test": "qHTS assay to identify small molecule antagonists of the peroxisome proliferator-activated receptor gamma (PPARg) signaling pathway - cell viability counter screen (AID 743194); further: nearly all actives have a fitted effect of over 55% in size; further: potency means the concentration at half of the fitted maximal effect", "settings": "PPARg-bla HEK293H viability, CellTiter-Glo luminescence, 17 h, co-treated with 50 nM rosiglitazone; activity change, negative = cytotoxicity: at 62.6 µM (top of the series) unless noted", "how_it_was_run": "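PPARg-UAS-bla HEK293H cells were plated, rested 5 h at 37 C, then treated with compounds plus rosiglitazone (50 nM final) for 17 h at 37 C; viability was then read by CellTiter-Glo luminescence after 30 min at room temperature.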"}, "[14]": {"test": "qHTS assay to identify small molecule agonists of the sonic hedgehog signaling (Shh) pathway - cell viability counter screen (AID 1259366); further: potency means the concentration at half of the fitted maximal effect; nearly all actives have a fitted effect of over 50% in size", "how_it_was_run": "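NIH/3T3-derived Gli1-Luc reporter cells, 2,000 per well, received compound after 4 h and were treated about 23 h at 37C. Viability measured in the same wells by CellTiter-Fluor fluorescence after 1 h.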"}, "[15]": {"test": "qHTS assay to identify small molecule antagonists of the androgen receptor (AR) signaling pathway using the MDA cell line - cell viability counter screen (AID 743041)", "settings": "MDA-kb2 viability, CellTiter-Fluor, 16 h, cells co-treated with R1881 androgen agonist; viability change, negative = cytotoxic: at 70.3 µM (top of the series)", "how_it_was_run": "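Viability counter screen run alongside the AR antagonist reporter: cells seeded 5 h before compound, R1881 added, 16 h incubation at 37C without CO2, fluorescent CellTiter-Fluor signal quantified.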"}, "[16]": {"test": "qHTS assay to identify small molecule agonists of the peroxisome proliferator-activated receptor delta (PPARd) signaling pathway - cell viability counter screen (AID 743211); further: nearly all actives have a fitted effect of over 55% in size; further: potency means the concentration at half of the fitted maximal effect", "settings": "PPARd-bla HEK293H viability, CellTiter-Glo luminescence, 17 h; activity change, negative = cytotoxicity: at 62.6 µM (top of the series) unless noted", "how_it_was_run": "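PPARd-bla HEK293H cells (3000/well) were pre-incubated 5 h at 37 C, then exposed to compound for 17 h at 37 C. After 2 h with LiveBLAzer substrate, CellTiter-Glo was added to the same wells; luminescence read after 30 min at room temperature.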"}, "[17]": {"test": "qHTS assay to identify small molecule agonists of the hypoxia (HIF-1) signaling pathway (AID 1224846; active means well fitted activation curve with a large enough effect in the signal ratio in the repeat runs, not every such curve was filed as active; inconclusive means weak or mixed curves; the % refers to the signal ratio; further: on the % scale 0 is the no-effect control and ±100 the full control effect)", "settings": "HRE-bla ME-180 cells, beta-lactamase ratio, 17 h; activation: at 76.8 µM (top of the series) unless noted", "how_it_was_run": "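Steps: seed ME-180 HRE-bla cells (2,000/well, 0.5% dialyzed FBS); incubate 5 hrs at 37C; pin-transfer compounds or DMSO; incubate 17 hrs; add LiveBLAzer B/G substrate CCF4-AM; measure reporter activation by FRET.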"}, "[18]": {"test": "qHTS assay to identify small molecule agonists of the TGF-beta/Smad signaling pathway (AID 1346859; active means well fitted activation curve with a large enough effect in the signal ratio in the repeat runs, not every such curve was filed as active; inconclusive means weak or mixed curves; the % refers to the signal ratio; further: on the % scale 0 is the no-effect control and ±100 the full control effect)", "how_it_was_run": "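SBE-bla HEK293T cells plated overnight, then compound exposure for 5 h at 37 C. Beta-lactamase reporter read with LiveBLAzer B/G FRET substrate after 2 h at room temperature, fluorescence at 405 nm excitation, 460/530 nm emission.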"}, "[19]": {"test": "qHTS assay to identify small molecule agonists of the estrogen receptor alpha (ER-alpha) signaling pathway in the presence of an antagonist - cell viability counter screen (AID 1259386); further: on the % scale 0 is the no-effect control and ±100 the full control effect; nearly all actives have a fitted effect of over 30% in size", "how_it_was_run": "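Cells are starved of estrogens for 5 days in charcoal-stripped serum, seeded for 24hr and co-treated with ICI-182,780 (10.0nM final) and test compounds. After 22hr at 37C, viability is read as CellTiter-Fluor fluorescence.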"}}, "note": "“And” between values parts separate entries of the source, which are not always exact repeats. Identical values can stand only once. The inconclusive results got no clear call from the source; some entries with a clear call stand among them for comparison. For some assays here: Potencies of inconclusive entries are doubtful fits and often do not repeat. The source made the active and inactive calls. Unless noted, the call rests on the fitted dose curve; in most records, active means well fitted curve in the direction sought with a large enough effect in the repeat runs; inconclusive means weak or mixed curves; inactive means no such curve, though single readings can be large; an effect the other way counts as inactive or inconclusive. Tags describe the fitted curve by direction and shape or compound fluorescence and quenching."}
{"smiles": "CC(C)N(c1ccccc1)C(C)C", "values": [{"measurement": "Potency", "setting": "[1]", "value": "inactive"}, {"measurement": "Potency", "setting": "[2]", "value": "inactive"}]}
{"smiles": "CCCCC/C=C/CC(=O)OC", "values": [{"measurement": "Potency", "setting": "[3]", "value": "inactive"}]}
{"smiles": "C=C/C=C/C=C/CCCCC", "values": [{"measurement": "viability change, negative = cytotoxic", "setting": "[1]", "value": "inactive: -0.871% [at 19 µM]"}, {"measurement": "activity change, negative = cytotoxicity", "setting": "[2]", "value": "inactive: -1.07% [at 19 µM]"}, {"measurement": "activity change, negative = inhibition", "setting": "[4]", "value": "inactive: -12.1% [at 15.8 µM]"}]}
{"smiles": "C[N+]1(C)CCC(OC(=O)C(O)(c2ccccc2)C2CCCC2)C1", "note": "(stereo unspecified)", "values": [{"measurement": "Potency", "setting": "[5]", "value": "inconclusive: 13.3 µM [cytotoxic, single point]"}, {"measurement": "Potency", "setting": "[6]", "value": "active: 23.9 µM"}, {"measurement": "Potency", "setting": "[7]", "value": "active: 26.8 µM"}]}
{"smiles": "CCCC(=O)OCCC(C)CCC=C(C)C", "note": "(stereo unspecified)", "values": [{"measurement": "Potency", "setting": "[8]", "value": "inconclusive: 19.5 µM [falling, partial curve]"}]}
{"smiles": "CO/N=C(/C(=O)N[C@@H]1C(=O)N2C(C(=O)OCOC(=O)C(C)(C)C)=C(C)CS[C@H]12)c1csc(N)n1", "values": [{"measurement": "Potency", "setting": "[9]", "value": "inconclusive: 33.5 µM [inhibitor, single point]"}]}
{"smiles": "CCOC(=O)OC(=O)OCC", "values": [{"measurement": "Potency", "setting": "[8]", "value": "inconclusive: 49 µM [rising, partial curve, poor fit]"}, {"measurement": "Potency", "setting": "[10]", "value": "inactive"}]}
{"smiles": "CC(=O)NCCCCCC(=O)O", "values": [{"measurement": "Potency", "setting": "[4]", "value": "inactive"}]}
{"smiles": "C=C(C)CCCC", "values": [{"measurement": "Potency", "setting": "[11]", "value": "inactive"}]}
{"smiles": "c1ccccc1", "values": [{"measurement": "Potency", "setting": "[7]", "value": "inactive"}, {"measurement": "Potency", "setting": "[12]", "value": "inconclusive: 0.0017 µM [falling, full curve, poor fit]"}]}
{"smiles": "CCOc1ccccc1OCC", "values": [{"measurement": "Potency", "setting": "[6]", "value": "inactive"}]}
{"smiles": "CC(C)OCCO", "values": [{"measurement": "Potency", "setting": "[12]", "value": "inconclusive: 68.6 µM [rising, single point]"}]}
{"smiles": "NC(=O)Nc1ccc(Cl)cc1", "values": [{"measurement": "activity change, negative = cytotoxicity", "setting": "[13]", "value": "inconclusive: 0.938%"}, {"measurement": "Potency", "setting": "[7]", "value": "inconclusive: 21.8 µM [activator, single point]"}, {"measurement": "Potency", "setting": "[2]", "value": "inactive"}]}
{"smiles": "Cc1ccccc1OCC(=O)O", "values": [{"measurement": "Potency", "setting": "[8]", "value": "inactive"}, {"measurement": "Potency", "setting": "[1]", "value": "inactive"}]}
{"smiles": "CC(C)OC(=O)OCOP(=O)(CO[C@H](C)Cn1cnc2c(N)ncnc21)OCOC(=O)OC(C)C", "values": [{"measurement": "Potency", "setting": "[5]", "value": "inconclusive: 13.3 µM [rising, partial curve, poor fit]"}]}
{"smiles": "[Cl][Sc]([Cl])[Cl]", "values": [{"measurement": "Potency", "setting": "[14]", "value": "inconclusive: 48.6 µM [rising, partial curve]"}]}
{"smiles": "CC(=O)NC(=O)c1ccccc1O", "values": [{"measurement": "Potency", "setting": "[15]", "value": "inactive"}, {"measurement": "Potency", "setting": "[16]", "value": "inconclusive: 4.73 µM [cytotoxic, single point]"}, {"measurement": "Potency", "setting": "[17]", "value": "inactive"}]}
{"smiles": "CC[C@H]1OC(=O)[C@H](C)[C@@H](O[C@H]2C[C@@](C)(OC)[C@@H](O)[C@H](C)O2)[C@H](C)[C@@H](O[C@@H]2O[C@H](C)C[C@H](N(C)C)[C@H]2O)[C@](C)(OC)C[C@@H](C)C(=O)[C@H](C)[C@@H](O)[C@]1(C)O", "values": [{"measurement": "Potency", "setting": "[3]", "value": "inconclusive: 8.49 µM [cytotoxic, partial curve, poor fit]"}, {"measurement": "Potency", "setting": "[9]", "value": "inconclusive: 13.3 µM [inhibitor, partial curve, poor fit]"}, {"measurement": "Potency", "setting": "[5]", "value": "inconclusive: 21.1 µM [cytotoxic, partial curve, poor fit] and inconclusive: 19.5 µM [cytotoxic, full curve]"}, {"measurement": "Potency", "setting": "[14]", "value": "inconclusive: 54.9 µM [cytotoxic, partial curve, poor fit]"}, {"measurement": "Potency", "setting": "[10]", "value": "inactive"}, {"measurement": "Potency", "setting": "[18]", "value": "inactive"}]}
{"smiles": "COc1nc(N)nc2nc[nH]c12", "values": [{"measurement": "Potency", "setting": "[9]", "value": "inactive"}, {"measurement": "Potency", "setting": "[16]", "value": "inconclusive: 1.95 µM [cytotoxic, full curve, poor fit]"}]}
{"smiles": "CCCCCCCCC(=O)Cl", "values": [{"measurement": "Potency", "setting": "[13]", "value": "inactive"}, {"measurement": "Potency", "setting": "[16]", "value": "inactive"}]}
{"smiles": "CC(=O)Nc1ccccc1O", "values": [{"measurement": "Potency", "setting": "[13]", "value": "inconclusive: 0.275 µM [rising, partial curve, poor fit]"}, {"measurement": "Potency", "setting": "[19]", "value": "inactive"}]}
